# Experimental data published in paper PMC4336329 (PLoS ONE, 2015).
# In all, about 310,000 compounds went through this assay and about 14,000 (4.5%) showed an effect of 50% or more. The effect is printed as a negative number. The list shows a part of the results.
# Target: human ether-à-go-go-related gene (hERG) potassium channel (human, UniProt Q12809)
# Assay: primary screen, population patch clamp on CHO cells stably expressing hERG
# 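Further: peak tail current of the secondary pulse compared with the same well before compound.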
# human ether-à-go-go-related gene (hERG) potassium channel, sequence (Q12809 whole entry, looked up): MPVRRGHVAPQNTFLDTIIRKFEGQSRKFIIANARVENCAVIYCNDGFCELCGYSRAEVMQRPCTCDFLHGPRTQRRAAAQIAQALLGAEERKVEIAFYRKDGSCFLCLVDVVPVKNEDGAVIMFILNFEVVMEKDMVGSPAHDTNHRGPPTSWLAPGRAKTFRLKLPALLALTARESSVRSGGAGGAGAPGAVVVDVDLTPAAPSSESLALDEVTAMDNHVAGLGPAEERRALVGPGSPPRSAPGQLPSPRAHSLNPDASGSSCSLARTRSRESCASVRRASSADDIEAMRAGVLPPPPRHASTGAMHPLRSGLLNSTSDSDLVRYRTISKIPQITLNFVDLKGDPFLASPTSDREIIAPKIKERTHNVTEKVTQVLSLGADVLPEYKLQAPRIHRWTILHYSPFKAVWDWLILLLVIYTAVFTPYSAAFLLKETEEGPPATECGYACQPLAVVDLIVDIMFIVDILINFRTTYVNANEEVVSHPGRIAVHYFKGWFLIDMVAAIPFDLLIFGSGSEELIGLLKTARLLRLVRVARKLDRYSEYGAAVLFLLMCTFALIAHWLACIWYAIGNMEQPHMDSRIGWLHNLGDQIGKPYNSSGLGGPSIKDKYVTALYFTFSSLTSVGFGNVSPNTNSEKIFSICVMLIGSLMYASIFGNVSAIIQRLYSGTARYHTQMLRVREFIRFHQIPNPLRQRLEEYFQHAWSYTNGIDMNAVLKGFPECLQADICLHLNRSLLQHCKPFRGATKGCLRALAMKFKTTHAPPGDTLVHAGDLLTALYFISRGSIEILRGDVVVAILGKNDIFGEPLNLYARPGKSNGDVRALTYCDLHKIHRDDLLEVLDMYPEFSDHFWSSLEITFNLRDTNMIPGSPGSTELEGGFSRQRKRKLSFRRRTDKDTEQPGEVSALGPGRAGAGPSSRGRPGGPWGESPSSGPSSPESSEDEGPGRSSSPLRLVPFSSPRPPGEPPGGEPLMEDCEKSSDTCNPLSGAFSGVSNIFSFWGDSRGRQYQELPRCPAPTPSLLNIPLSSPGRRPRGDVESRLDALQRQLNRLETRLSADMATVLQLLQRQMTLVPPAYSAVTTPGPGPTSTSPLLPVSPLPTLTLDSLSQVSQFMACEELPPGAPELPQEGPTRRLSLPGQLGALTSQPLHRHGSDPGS
row,SMILES,"hERG current change (%, negative = inhibition) at 10uM [%]"
1,O=C1NNC(=O)C2C3C=CC(C4CC34)C12 (stereo not drawn),-17.8
2,CCOC(=O)Cc1csc(N/C(=N/S(=O)(=O)c2cc(Br)ccc2OCC)c2ccccc2)n1,-37.2
3,COc1nccnc1NS(=O)(=O)c1ccc(NS(=O)(=O)c2ccc(NC(C)=O)cc2)cc1,1.66
4,Cc1cc(N2CCOCC2)nc2ccc(NC(=S)N3CCCCC3C)cc12 (stereo not drawn),-48.8
5,CC(=O)c1ccccc1Oc1ncnc(N)c1[N+](=O)[O-],35.5
6,CCOc1ccc(CCNC(=O)Cn2nc(C)n3cccc3c2=O)cc1OCC,25
7,COc1ccc(NS(=O)(=O)c2ccc(O)c(NC(=O)c3cc4c(C)nn(-c5ccc(F)cc5)c4s3)c2)cc1,11.4
8,CCC/C(O)=C1\C(=O)CC(C)(C)CC1=NCCO,7.94
9,c1csc(-c2nn3c(C4COc5ccccc5O4)nnc3s2)c1 (stereo not drawn),8.98
10,O=C(NCC1CCCCC1)c1cc(S(=O)(=O)N2CCCCC2)ccc1N1CCOCC1,-7.89
11,O=C(CNS(=O)(=O)c1ccc(Br)s1)NCc1ccc2c(c1)OCO2,-19.3
12,COc1cccc(-c2c(C(=O)N/N=C/c3cccs3)nnn2-c2nonc2N)c1,9.1
13,C/C(Cl)=C\CSc1nnc2n(N)c(=O)c3ccccc3n12,-40
14,O=[N+]([O-])c1cc(-n2cnnn2)ccc1N1CCC(Cc2ccccc2)CC1,-54.9
15,Cc1[nH]n(-c2cccc(Cl)c2)c(=O)c1/C=N/n1c(C)nc2ccccc2c1=O,9.12
16,CCNC(=S)NNC(=O)c1cc(-c2ccccc2C)nc2ccccc12,18.3
17,COc1ccc(C2CC(=O)N(CC(=O)NCC3CCCO3)c3ccccc3S2)cc1OC (stereo not drawn),-11.9
18,Cn1cccc1-c1cc(C(=O)N2CCc3c([nH]c4ccccc34)C2c2ccccn2)[nH]n1 (stereo not drawn),17.9
19,COc1ccc(NC(NC(=O)c2cccnc2)C(Cl)(Cl)Cl)cc1 (stereo not drawn),29.3
20,CC(OC(=O)c1nc(Cl)ccc1Cl)C(=O)Nc1ccc2c(c1)OCCO2 (stereo not drawn),8.99
21,O=Cc1c[nH]c2ncccc12,7.02
22,COc1ccc(C2N(c3ccc(Cl)cc3)N=C(C(C)=O)N(C)N2C(C)=O)cc1 (stereo not drawn),6.85

row,SMILES,"hERG current change (%, negative = inhibition) at 10uM [%]"
1,S=c1[nH]nc(-c2ccccn2)n1/N=C/c1ccc(Cl)c(Cl)c1,21.7
2,CCN1CCN(C(=O)c2ccccc2N(Cc2ccccc2)S(C)(=O)=O)CC1,-8.25
3,C[C@@H](NC(=O)c1nc[nH]c1C(=O)OCc1ccccc1)c1ccccc1,5.6
4,CC(C)C(c1nnnn1Cc1ccc(F)cc1)N1CCN(c2ccc(O)cc2)CC1 (stereo not drawn),-11.8
5,CCCCc1n[nH]c(=S)n1Cc1ccccc1,-30.1
6,CC(C)=CC(=O)Nc1ccccc1C(N)=O,12.9
7,Cc1nc(SCC(=O)NCc2ccco2)c2c(C)c(C)sc2n1,-2.85
8,Cc1ccc(S(=O)(=O)N2CCOCC2)cc1C(=O)Nc1nc(-c2cccnc2)cs1,13.3
9,CCc1ccc(-c2ccc(SCC(=O)NCC3CCCO3)nn2)cc1 (stereo not drawn),-8.17
10,CCOc1ccc(/C(O)=C2\C(=O)C(=O)N(c3cc(C)on3)C2c2ccccc2OC)cc1 (stereo not drawn),5.46
11,COCCCNc1ncnc2c1sc1nc(-c3ccco3)c3c(c12)CC(C)(C)OC3,-1.11
12,O=C(CNc1cccc2ccccc12)N/N=C/c1ccccn1,-11.2
13,O=c1[nH][nH]cc1C=Nc1ccc(Cl)cc1Cl,20.6
14,COc1ccc(NC(=O)c2coc(C)c2)cc1,8.01
15,CC(C)(C)c1ccc(NC(=O)COC(=O)c2ccc(NS(=O)(=O)c3ccc(F)c(F)c3)cc2)cc1,15.7
16,COc1ccc(/C=C/C(=O)N2CCCc3ccccc32)c(OC)c1,8.22
17,COC(=O)C1CCN(Cc2cn(-c3ccccc3)nc2-c2ccc3c(c2)OCO3)CC1,-33.7
18,COc1ccc(CCNC(=O)CSc2nnc(NC(C)=O)s2)cc1OC,7.1
19,O=C(O)C1CC(=O)N(Cc2ccccc2)C1 (stereo not drawn),19.9
20,CN(c1ccc(C(=O)Nc2nccs2)cc1)S(=O)(=O)c1ccccc1,-19.9
21,COCCC1CCCCN1C(=O)c1cc(COc2ccc(-n3cncn3)cc2)on1 (stereo not drawn),-43.6
22,CC(C)Cn1cc(C(=O)N2CCN(c3ccccn3)CC2)c2c3ccccc3n(C)c2c1=O,-29.2

row,SMILES,"hERG current change (%, negative = inhibition) at 10uM [%]"
1,Cc1cc(NC(=O)/C=C/c2ccccc2)c(C(C)C)cc1O,10.7
2,Cc1ccc(C)c(NC(=O)CCn2cnnn2)c1,8.08
3,O=C(CNC(=O)c1cccs1)N/N=C/c1cccc(Cl)c1,-5.74
4,CC1(C)N=C(N)N=C(N)N1c1cccc(C(=O)O)c1.Cl,2.64
5,O=C(NCCSc1ccccc1)c1ccccc1Cl,5.57
6,CCOc1ccc(N(C(=O)c2snc(C(N)=O)c2N)C(C(=O)NC2CCCC2)C(C)C)cc1 (stereo not drawn),13.4
7,COc1cccc(/C=N/NC(=O)c2cccc(N3CCCC3=O)c2)c1,-24.9
8,C=Cn1cc[n+](CC(=O)c2ccc(Br)cc2)c1.[Br-],9.59
9,CCCCOC(=O)c1ccc(NC(=O)C(=O)NCc2cccnc2)cc1,-11.6
10,COc1cccc(NC(=O)COC(=O)/C=C/c2ccco2)c1,-4.68
11,CCCS(=O)(=O)NCCc1csc(-c2ccc(OC)c(OC)c2)n1,-2.73
12,CC(CNC(=S)Nc1cc(F)cc(F)c1)CSc1ccc(Cl)cc1 (stereo not drawn),8.6
13,CC1CCc2c(sc3ncnc(SCC(=O)c4ccccc4)c23)C1 (stereo not drawn),15.5
14,Cc1ccc(NC(=O)Cn2nnc3ccccc32)c(C)c1,11
15,COc1cc(/C=N\NC(=O)c2ccc(-c3ccccc3)cc2)cc(Br)c1O,16
16,CCc1cc(=O)[nH]c(SCC(=O)N2CCC(Cc3ccccc3)CC2)n1,-36.7
17,COCCCNC(=O)CSc1ccsc1[N+](=O)[O-],11
18,C=CCOC(=O)C1=C[C@@H](c2ccc(C(F)(F)F)cc2)C[C@@H](OCc2ccc(CO)cc2)O1,-47.4
19,CCc1ccc(OCCNc2cc(N3CCNC(C)C3)ccc2[N+](=O)[O-])cc1 (stereo not drawn),-14.8
20,CCOC(=O)[C@@H]1[C@H]2COc3ccc(Br)cc3[C@@H]2N2C(=O)N(c3cccc(C)c3)C(=O)[C@]12C,6.18
21,Cc1ccc(C(=O)Nc2cccnc2)cc1S(=O)(=O)N1CCOCC1,-1.68
22,CCC[n+]1cn(/C(C(=S)Nc2cccc(Cl)c2C)=C(/[O-])c2ccc(OC)c(OC)c2)c2ccccc21,-0.928

row,SMILES,"hERG current change (%, negative = inhibition) at 10uM [%]"
1,O=C(Nc1ccc2[nH]c(=S)sc2c1)Nc1ccccc1F,15.3
2,O=C1/C(=C/c2ccc([N+](=O)[O-])cc2)Oc2cc(O)ccc21,11.9
3,O=C(Cc1ccc2cccnc2c1)c1ccc(O)cc1O,7.3
4,O=C(COc1cc(Cl)ccc1Cl)Nc1nnc(CC(=O)N2CCOCC2)s1,7.48
5,O=C(c1ccc(CS(=O)(=O)c2cccc(C(F)(F)F)c2)o1)N1CCN(c2ccccn2)CC1,-27
6,O=C1N/C(=N\c2ccccn2)SC1Cc1ccc(Cl)cc1 (stereo not drawn),4.11
7,Nc1ccn(Cc2cccc(F)c2)n1,16.1
8,O=C(Nc1ccccc1Cl)c1cc(S(=O)(=O)N2CCOCC2)cs1,-9.07
9,CCSc1nc(-c2ccccc2)c2cc(Cl)ccc2n1,11.4
10,Cn1c(=O)c2c(nc(CN3CCN(C(c4ccccc4)c4ccccc4)CC3)n2CC(N)=O)n(C)c1=O,-5.62
11,O=C(O)CC(NC(=O)Cc1ccc([N+](=O)[O-])cc1)c1ccc2c(c1)OCO2 (stereo not drawn),4.42
12,CCOc1ccc(OCc2ccc(C(=O)N(C)c3ccccc3)o2)cc1,-13.9
13,Cc1csc(NC(=O)c2cccnc2)n1,13.5
14,CCOC(=O)c1cc(C(O)(C(F)(F)F)C(F)(F)F)c(/N=C/N(C)C)o1,3.36
15,CC(Oc1ccc2oc(-c3ccccc3)c(C(=O)O)c2c1)C(=O)O (stereo not drawn),14.7
16,O=C(CN1C(=O)NC2(CCCC2)C1=O)Nc1cccc(Cl)c1Cl,14.1
17,CCC(C)N1CCN(S(=O)(=O)Cc2ccccc2)CC1 (stereo not drawn),11.7
18,O=C(O)CC(Cc1ccccc1)c1ccc2c(c1)OCO2 (stereo not drawn),14.4
19,COc1ccc(-n2c(N)c(C(=O)Nc3c(C)n(C)n(-c4ccccc4)c3=O)c3nc4ccccc4nc32)cc1,-28.2
20,Cc1cc(NC(=O)CSc2nc3ccccc3n2CCC#N)no1,10.8
21,COCCn1nnnc1C(c1cccc(C#N)c1)N1CCCCCC1.Cl (stereo not drawn),-56.6
